Results from ChEMBL document CHEMBL1201862, “PubChem BioAssay data set” (2004).
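All cell lines were grown in 96-well plates and treated with compound for 48 hours. GI50 is the concentration that inhibits growth by half.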 Active and inactive are the calls of the source. Rule as the data show it: active = GI50 up to about 1.1 µM and inactive = higher.

system: NCI-H322M; experiment: DTP human tumour cell line panel, 48 h

Structure (SMILES)	GI50
CC(C)c1ccc2nc3ccc(C(=O)NCCN4CCN(c5ccccc5)CC4)cn3c(=O)c2c1	inactive: 84.9 µM
Clc1ccc2nc3c(c(-c4ccccc4)nn3-c3ccccc3)c(-c3ccccc3)c2c1	inactive: > 100 µM
COc1ccc2c(c1)CCc1c(-c3noc4c3CCc3cc(OC)ccc3-4)noc1-2	inactive: > 100 µM
CN(C)CCNCCCNc1c2ccccc2nc2cccc([N+](=O)[O-])c12	active: < 0.024 µM
CCOC(=O)C1=C(O)C(=O)c2c(OC)ccc(OC)c2C1=O	inactive: > 100 µM
Cc1cc2c(Br)cc(Br)c(O)c2nc1C(=O)c1ccccc1	inactive: 15.5 µM
O=C1CCCCCCCCCCC1CN1CCOCC1 (centres undefined)	inactive: > 100 µM
COc1cccc(/C=N/n2c(C)n[nH]c2=O)c1	inactive: > 100 µM
CCc1n[nH]c(=O)n1/N=C(\C)c1ccc([N+](=O)[O-])cc1	inactive: 84.9 µM
OC1(C(Sc2cc(C(F)(F)F)cc(C(F)(F)F)c2)Sc2cc(C(F)(F)F)cc(C(F)(F)F)c2)C=CCCC1 (centres undefined)	inactive: 6.78 µM
CCOC(=O)N/N=C(\CC)OCC	inactive: > 100 µM
c1ccc(C2=NC3OC2c2ccccc23)cc1 (centres undefined)	inactive: > 10 µM
CCCCCC(O)[C@H]1C(=O)C[C@@H](O[Si](C)(C)C(C)(C)C)[C@@H]1/C=C/CCOCc1ccccc1 (some centres undefined)	inactive: 16.9 µM
O=C1c2cc([N+](=O)[O-])cc3cc([N+](=O)[O-])cc(c23)C(=O)N1CCCNCCNCCCN1C(=O)c2cc([N+](=O)[O-])cc3cc([N+](=O)[O-])cc(c23)C1=O	active: 0.233 µM
C=C(CN)CO[Si](C)(C)C(C)(C)C	inactive: > 100 µM
CCCCC/C=C1\CCC(CN(C)C)C1=O (centres undefined)	inactive: 21.6 µM
CSc1ccc(NC(=O)C2c3[nH]c4ccccc4c3C3CCC(C(C)(C)C)CC3C2C(=O)O)cc1 (centres undefined)	inactive: 25 µM
Cc1cccc(Nc2nc3ccccc3nc2NS(=O)(=O)c2ccccc2)c1	inactive: 37.5 µM
COc1ccc(C(c2ccccc2C(=O)O)c2ccc(OC)c3ccccc23)c2ccccc12	inactive: 14.6 µM
O=C(O)CSC1=NCCN1	inactive: > 100 µM
COc1ccc2oc(=O)c3c(c2c1C)OC(C)(C)C=C3	inactive: > 100 µM
CCc1ccccc1NC(=O)C(=O)C1C(=O)N(c2ccccc2)N=C1N (centres undefined)	inactive: > 100 µM

Structure (SMILES)	GI50
CCOC(=O)c1cc2c3c(c(O)c(OC)c2s1)N(C(=O)c1cc2c4c(c(O)c(OC)c2s1)N(C(C)=O)CC4)CC3	inactive: > 100 µM
O=C1CCCCCCCCCCC1CN1CCCC1 (centres undefined)	inactive: 44.4 µM
N=C(N)/N=C(\N)Nc1cnccn1	inactive: > 100 µM
CNc1ccc(N)cc1C(=O)N1CCC[C@H]1CO	inactive: > 100 µM
COc1ccccc1/C=C1\C(=O)N(C(=O)Cc2ccccc2)N=C1C	inactive: 28.6 µM
CNC(=O)OCc1c(CO)nc(SC)n1C	inactive: > 100 µM
O=C1/C(=C/c2cccc(Oc3ccccc3)c2)N=C(c2ccccc2)N1c1nc2ccc(Sc3ccccc3)cc2[nH]1	inactive: 53.8 µM
Cc1cc(=O)n2nc(CSc3nnc(Sc4cc(O)ccc4O)s3)sc2n1	inactive: > 100 µM
CCP(C)(=O)CC	inactive: > 100 µM
CC(=O)N1CCN(C23OC4(N5CCN(C(C)=O)CC5)C5C6CC(C7C6C4C72)C53)CC1 (centres undefined)	inactive: > 100 µM
CCC(C)C1NC(=O)C(NC(=O)c2c3nc4c(C(=O)NC5C(=O)NC(C(C)CC)C(=O)N6CCCC6C(=O)N(C)CC(=O)N(C)C(C(C)C)C(=O)OC5C)ccc(C)c4oc-3c(C)c(=O)c2O)C(C)OC(=O)C(C(C)C)N(C)C(=O)CN(C)C(=O)C2CCCN2C1=O (centres undefined)	inactive: 4.24 µM
C/C=C\C(C)=C/C(C)C(=O)CC(O)CC1CC(=O)NC(=O)C1 (centres undefined)	inactive: 21.3 µM
C=CC(=O)NC(=N)NC#N	inactive: 177 µM
Cn1cc(C(=O)C2CCCCC2)ccc1=O	inactive: > 100 µM
CC(C)OP(=O)(OC(C)C)C(C(C)C)N(C)/C(F)=N/C(F)(F)F (centres undefined)	inactive: > 100 µM
c1cn(C23C4C5C6C4C2C6C53)cn1 (centres undefined)	inactive: > 100 µM
Cc1ccccc1N(CCC#N)C1=NN(C(=O)CC(=O)Nc2ccccc2)C(c2ccccc2)C1 (centres undefined)	inactive: > 100 µM
CC1C(O)=C(O)c2ccccc2N1O (centres undefined)	inactive: > 100 µM
CC1C[C@@H]2C(=O)NC(=O)[C@@H]2c2c1c1ccccc1n2C (some centres undefined)	inactive: > 100 µM
Cc1cc(NC(=O)C2C3C=CC(O3)C2C(=O)O)no1 (centres undefined)	inactive: > 100 µM
O=C1/C(=C/c2ccc(O)cc2)Oc2ccccc21	inactive: > 100 µM
COC(=O)C(=O)C(C(=O)C(=O)Nc1ccc(C)cc1C)c1nc2ccc(Cl)cc2nc1O (centres undefined)	inactive: > 100 µM
